“And” between values parts separate entries of the source, which are not always exact repeats. Equal values may be shown once. In all, about 94,000 compounds went through this assay and about 6,200 (6.6%) were called active. Inconclusive means that the source gave no clear call. Such entries were picked first, then a sample of the others. The call rests on the fitted dose curve; in most records, active means well fitted inhibition curve with a large enough effect; inconclusive means small, poorly fitted or top-dose-only effect; inactive means flat fitted curve, though single readings scatter. A potency beside an inconclusive call is a rough fit, not a confirmed value.
Test: Cytotoxic Profiling in HEK 293 Cell Line of Diverse Libraries Using Quantitative High-Throughput Screening; further: nearly all actives have a fitted effect of over 60% in size
Conditions: HEK 293 viability, ATP luminescence (CellTiter-Glo), 48-72 h; series mostly up to 115 µM
Outline: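 Cells seeded first (HEK 293, 250 cells/well), then compound added by pintool. Incubation ran 48 or 72 hr at 37 degree Celsius. CellTiter-Glo was added and luminescence imaged after 10 min at room temperature.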
In the case of `CCC(CC)C(=O)N1CC2=CC(C)(C)COc3ccc(OC)c(c32)C1`, the Potency is reported as inconclusive: 56.2 µM [inhibitor, partial curve, poor fit].
With `CCOc1ccc(NC(=O)[C@@H]2C[C@@H](O)CN2C2CCN(C(=O)c3cccc(OC)c3)CC2)cc1` the Potency was “inactive”.
For `CCOc1ccc(C(=O)N2CCC(c3n[nH]c(=O)n3Cc3ccc(OC)cc3)CC2)cc1`, the Potency was “inactive”.
In the case of `COc1ncccc1-c1cnc2[nH]cc(CC(=O)Nc3ccccn3)c2c1`, the Potency is reported as inconclusive: 63.1 µM [inhibitor, partial curve, poor fit].
With `COCC1CN(C(C)=O)CC12CCN(S(=O)(=O)c1ccc(F)c(C)c1)CC2` (stereo not given) the Potency was “inactive”.
For `O=C(Nc1ccccc1)c1cnc2n1CCN(Cc1cccc(OC(F)(F)F)c1)CC2`, the Potency was inconclusive: 89.1 µM [inhibitor, partial curve, poor fit].
With `CNC(=O)C(C)(C)N1CCC[C@H]1C(=O)N1CCCCCC1` the Potency was “inactive”.
With `O=C(Nc1ccc2[nH]ccc2c1)C1=NO[C@@H]2CN(Cc3ccc(F)cc3)C[C@H]12` the Potency was inconclusive: 112 µM [inhibitor, partial curve].
In the case of `O=C(N[C@@H]1CCN(Cc2ccc3nsnc3c2)C[C@H]1O)c1cnccn1`, the Potency is reported as “inactive”.
With `O=C(Nc1cccc(C(F)(F)F)c1)c1nc2c(o1)CCN(Cc1ccccc1F)CC2` the Potency was active: 63.1 µM.
In the case of `CC(=O)N1CC2(Cc3ccccc31)CN(C(=O)Cc1cccc(Cl)c1)C2`, the Potency is reported as inconclusive: 79.4 µM [inhibitor, single point].
For `O=C(NCc1ccccn1)C1CN(C2CCCCC2)C(=O)N1` (stereo not given), the Potency was “inactive”.
For `COc1ccc(F)cc1-c1cccc(C(=O)NCCNC(=O)NC2CCCC2)c1`, the Potency was inconclusive: 50.1 µM [inhibitor, partial curve, poor fit].
With `O=C(NC1CCCc2c1[nH]c1ccc(Cl)cc21)c1ccco1` (stereo not given) the Potency was “inactive”.
For `COc1cccc(CCC(=O)N2CCC3(CC2)NC(=O)N(c2cccc(F)c2)N3)c1`, the Potency was inconclusive: 44.7 µM [inhibitor, partial curve, poor fit].
In the case of `CC(C)CN1C[C@H](COCc2ccccc2)Oc2ccncc2[S+]1(=O)[O-]`, the Potency is reported as inconclusive: 35.5 µM [inhibitor, partial curve, poor fit].
In the case of `Cc1nc(CCC(=O)N(C)CC2CCN(CCc3cccc(F)c3)CC2)n[nH]1`, the Potency is reported as “inactive”.
With `Cc1ccc(-n2nc(-c3c(C)nc4scc(CC(=O)NCC(C)C)n4c3=O)cc2C)c(C)c1` the Potency was inconclusive: 50.1 µM [inhibitor, partial curve, poor fit].
For `COc1ccc(CN2Cc3cc(NC(=O)c4cc(OC)cc(OC)c4)ccc3OC(C)C2=O)cc1` (stereo not given), the Potency was active: 20 µM.
In the case of `O=C(Cc1ccccn1)NC1CCN(Cc2cccc(-c3ccc(F)c(F)c3)c2)CC1`, the Potency is reported as inconclusive: 50.1 µM [inhibitor, partial curve, poor fit].
For `O=C(NCc1ccc(C(F)(F)F)cc1)C1CN(c2ccc(Cl)cc2)C(=O)N1` (stereo not given), the Potency was inconclusive: 50.1 µM [inhibitor, partial curve, poor fit].
For `Cc1nc(CN2C(=O)OC3(CCN(C(=O)c4ccnn4C)CC3)C2(C)c2ccccc2)cs1` (stereo not given), the Potency was “inactive”.
For `CC(NC(=O)c1ccc(OC2CCN(S(=O)(=O)N(C)C)CC2)cc1)c1cccs1` (stereo not given), the Potency was inconclusive: 44.7 µM [inhibitor, partial curve, poor fit].
In the case of `COc1cccc(-c2nnnn2[C@H]2CO[C@H]3[C@@H]2OC[C@@H]3NS(=O)(=O)Cc2ccccc2)c1`, the Potency is reported as “inactive”.
With `c1csc(-c2nc3ccncc3[nH]2)c1` the Potency was inconclusive: 112 µM [inhibitor, partial curve] and inconclusive: 79.4 µM [inhibitor, full curve, poor fit].
For `COC[C@@H]1CN(C(=O)c2nccc3ccccc23)C[C@H]1c1ccncc1`, the Potency was “inactive”.
With `c1ccc(C2(c3ccccc3)CCCN(Cc3cscn3)C2)cc1` the Potency was active: 39.8 µM.
For `CC(C)N1CCC[C@H]1c1nc(-c2ccc(OC3CCCCC3)nc2)no1`, the Potency was inconclusive: 56.2 µM [inhibitor, partial curve, poor fit].
With `Cc1noc2c(-c3cn[nH]c3)cc(-c3ccccc3)nc12` the Potency was inconclusive: 70.8 µM [inhibitor, partial curve].
In the case of `O=C(NCCc1ccccc1F)C1CCc2nnc(CN[S+](=O)([O-])c3ccccc3Cl)n21` (stereo not given), the Potency is reported as “inactive”.
With `COc1ccc(NC(=O)c2cc3n(n2)CC(c2ccc(Cl)cc2)OC3)cc1Cl` (stereo not given) the Potency was inconclusive: 50.1 µM [inhibitor, partial curve, poor fit].
For `Cc1ccc(C(=O)N2CCN(c3cc(-c4cccs4)[nH]n3)CC2)s1`, the Potency was inconclusive: 50.1 µM [inhibitor, partial curve, poor fit].
With `COc1ccc(-c2noc(-c3cccn3CC(=O)N3CCC(C)CC3)n2)cc1F` the Potency was “inactive”.
For `CC1=C[C@@H](CNC(=O)C(C)(C)C)[C@H](C(C)C)C[C@H]1Cc1nnc(-c2ccncc2)o1`, the Potency was active: 79.4 µM.
With `O=C(c1ccc2c(c1)OCO2)N1CCn2c(nn(-c3ccc(C(F)(F)F)cc3)c2=O)C1` the Potency was inconclusive: 56.2 µM [inhibitor, partial curve, poor fit].
For `COc1nc2nc(CC3CC3)n(C)c2cc1-c1ccncc1`, the Potency was inconclusive: 141 µM [inhibitor, partial curve, poor fit].
With `Cn1c(CNC(=O)c2cc3c(s2)CN(C2CC2)C3)nc2ccccc21` the Potency was inconclusive: 63.1 µM [inhibitor, partial curve, poor fit].
For `O=C(NCc1ccc2c(c1)OCO2)c1cnc2c(c1)N(C(=O)CCc1ccccc1)CCC2`, the Potency was inconclusive: 50.1 µM [inhibitor, partial curve, poor fit].
In the case of `CC(CCn1cccn1)NC(=O)c1csc2nc(-c3ccc(C(F)(F)F)cc3)cn12` (stereo not given), the Potency is reported as inconclusive: 17.8 µM [inhibitor, full curve, poor fit].
For `COc1ccc(CNC(=O)N2CCC(CCOc3ccccc3OC)C2)cc1` (stereo not given), the Potency was inconclusive: 50.1 µM [inhibitor, partial curve, poor fit].
Potency means the concentration at half of the fitted maximal effect; tags describe the fitted curve by direction and shape.
